Data: the supplement of paper PMC10441789
Some of the results follow. Antibody binding of pooled human sera (four to six donors per pool; dilution not stated) to peptides of the Trypanosoma cruzi antigen TSSA on microarrays. Quantile-normalised fluorescence in arbitrary units, mean of duplicate arrays; higher = more binding. No active / inactive call. The uninfected pools are read here as the healthy donors of the same country. The strongest signals lie near the top of the scale (about 60,000).

Legend:
Test in all cases: antibody binding signal (normalised fluorescence) (arbitrary fluorescence units); higher = stronger serum antibody binding to peptide
[1] = system: pooled sera of chronic Chagas disease patients, Argentina
Procedure: (§1)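 Microarray of 15-residue peptides over residues 30-55 of Trypanosoma cruzi TSSAII, each with 1 to 10 substitutions at naturally variable positions, probed with one serum pool per country.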

[2] = system: pooled sera of chronic Chagas disease patients, Bolivia
Procedure: as §1

[3] = system: pooled sera of chronic Chagas disease patients, Brazil
Procedure: as §1

[4] = system: pooled sera of chronic Chagas disease patients, Colombia
Procedure: as §1

[5] = system: pooled sera of chronic Chagas disease patients, Mexico
Procedure: as §1

[6] = system: pooled sera of chronic Chagas disease patients, USA
Procedure: as §1

[7] = system: pooled sera of uninfected people, Argentina
Procedure: as §1

[8] = system: pooled sera of uninfected people, Bolivia
Procedure: as §1

[9] = system: pooled sera of uninfected people, Brazil
Procedure: as §1

[10] = system: pooled sera of uninfected people, Colombia
Procedure: as §1

[11] = system: pooled sera of uninfected people, Mexico
Procedure: as §1

[12] = system: pooled sera of uninfected people, USA
Procedure: as §1

Row | Sequence | antibody binding signal [1] | antibody binding signal [2] | antibody binding signal [3] | antibody binding signal [4] | antibody binding signal [5] | antibody binding signal [6] | antibody binding signal [7] | antibody binding signal [8] | antibody binding signal [9] | antibody binding signal [10] | antibody binding signal [11] | antibody binding signal [12]
1 | DNKTATGGTPSQSGA | 453 | 1100 | 695 | 814 | 384 | 647 | 432 | 202 | 565 | 214 | 701 | 186
2 | EKKTAAGEAPSPSGA | 1260 | 258 | 686 | 675 | 489 | 5860 | 259 | 1140 | 133 | 1300 | 202 | 889
3 | ENKPATGETPSPSGA | 36600 | 34100 | 35400 | 260 | 448 | 27700 | 316 | 427 | 265 | 115 | 1640 | 589
4 | KDNKAATGETPSQSG | 3230 | 728 | 19800 | 194 | 328 | 11300 | 328 | 931 | 191 | 210 | 214 | 103
5 | PSGKEKKAATGETPS | 5530 | 2220 | 9230 | 4700 | 6880 | 14000 | 473 | 593 | 133 | 235 | 98.8 | 152
6 | GKDKKTATGETPSPS | 810 | 220 | 493 | 1320 | 1300 | 5080 | 231 | 106 | 97.5 | 103 | 95.1 | 711
7 | GTEKKTATGEAPSQS | 14100 | 20900 | 15700 | 819 | 1140 | 20800 | 211 | 571 | 164 | 102 | 115 | 111
8 | SSTPPSGKDNKTAAG | 33500 | 9700 | 5770 | 1240 | 36000 | 3580 | 403 | 514 | 373 | 222 | 144 | 260
9 | PSGKEKKTATGGTPS | 4150 | 893 | 4660 | 6560 | 6820 | 5780 | 337 | 328 | 195 | 157 | 128 | 99.2
10 | SGKDNKPAAGGAPSP | 987 | 363 | 7670 | 2180 | 1130 | 1630 | 406 | 449 | 130 | 846 | 199 | 135
11 | NKAAAGGAPSPPGAS | 279 | 349 | 1920 | 3570 | 282 | 1370 | 932 | 1250 | 243 | 777 | 219 | 1600
12 | TENKTAAGGAPSQPG | 25800 | 4570 | 8490 | 4650 | 561 | 1310 | 371 | 173 | 590 | 167 | 454 | 231
13 | SGTDKKTATGETPSP | 317 | 806 | 1550 | 1280 | 273 | 8070 | 302 | 241 | 226 | 178 | 290 | 694
14 | TENKAAAGEAPSQSG | 28100 | 15900 | 24600 | 223 | 175 | 12900 | 73.4 | 123 | 108 | 64 | 101 | 109
15 | GKDNKPATGGTPSPP | 1130 | 239 | 989 | 1290 | 1770 | 1820 | 272 | 639 | 171 | 308 | 130 | 123
16 | TDKKPAAGETPSPSG | 377 | 195 | 4000 | 275 | 217 | 2530 | 100 | 316 | 173 | 166 | 224 | 1860
17 | GKENKTAAGEAPSQP | 8390 | 8330 | 37200 | 8110 | 6620 | 20800 | 413 | 207 | 130 | 173 | 147 | 150
18 | KDNKAAAGGAPSQSG | 245 | 190 | 199 | 736 | 174 | 182 | 325 | 1110 | 111 | 147 | 88.4 | 105
19 | ENKTAAGGTPSPPGA | 1130 | 1630 | 340 | 4720 | 337 | 1420 | 204 | 180 | 1210 | 241 | 1000 | 166
20 | PPSGTDNKTAAGEAP | 17700 | 26800 | 43900 | 490 | 667 | 6140 | 395 | 518 | 793 | 386 | 163 | 277
21 | GKEKKPAAGGTPSQP | 801 | 206 | 275 | 1560 | 902 | 1280 | 153 | 91.1 | 479 | 98.2 | 121 | 255
22 | GTDKKAAAGGTPSQP | 253 | 273 | 250 | 5170 | 423 | 1540 | 246 | 165 | 916 | 185 | 310 | 126
23 | DNKTATGEAPSPPGA | 11400 | 28300 | 17500 | 247 | 244 | 18800 | 160 | 134 | 214 | 153 | 148 | 113
24 | TENKPATGETPSQSG | 42500 | 28300 | 34800 | 243 | 605 | 25600 | 364 | 576 | 303 | 141 | 1630 | 182
25 | EKKTAAGGTPSPSGA | 1230 | 258 | 223 | 9810 | 561 | 1880 | 195 | 731 | 1050 | 266 | 171 | 647

Row | Sequence | antibody binding signal [1] | antibody binding signal [2] | antibody binding signal [3] | antibody binding signal [4] | antibody binding signal [5] | antibody binding signal [6] | antibody binding signal [7] | antibody binding signal [8] | antibody binding signal [9] | antibody binding signal [10] | antibody binding signal [11] | antibody binding signal [12]
26 | GTEKKPATGEAPSQP | 45900 | 44000 | 44400 | 1220 | 2280 | 40700 | 854 | 1430 | 2040 | 289 | 391 | 781
27 | SGKDNKTATGGTPSP | 814 | 589 | 902 | 3180 | 984 | 1850 | 261 | 146 | 170 | 507 | 119 | 155
28 | GTEKKAAAGGTPSQS | 462 | 240 | 207 | 4180 | 550 | 1630 | 181 | 398 | 2280 | 146 | 265 | 145
29 | PSGTEKKTATGGTPS | 11700 | 875 | 3430 | 5500 | 4620 | 4970 | 531 | 299 | 229 | 692 | 215 | 367
30 | KPATGGTPSQSGASS | 508 | 252 | 370 | 301 | 592 | 187 | 313 | 620 | 177 | 174 | 374 | 206
31 | KDKKPATGGAPSPSG | 393 | 478 | 219 | 627 | 243 | 985 | 224 | 317 | 99.5 | 86.1 | 85.5 | 96
32 | NKTATGGTPSQPGAS | 590 | 597 | 2100 | 2130 | 428 | 777 | 1150 | 1090 | 415 | 428 | 1670 | 1110
33 | TDKKAATGGAPSQSG | 1780 | 243 | 928 | 888 | 1570 | 1480 | 320 | 458 | 154 | 862 | 209 | 141
34 | GTEKKTATGEAPSPS | 10800 | 16000 | 10800 | 599 | 988 | 21000 | 240 | 544 | 220 | 116 | 138 | 126
35 | TDKKPATGETPSPSG | 32000 | 26200 | 28800 | 334 | 134 | 23500 | 165 | 377 | 313 | 195 | 1740 | 2340
36 | GTENKTAAGGTPSQP | 39000 | 1150 | 740 | 5780 | 825 | 1720 | 449 | 365 | 781 | 301 | 2830 | 161
37 | PSGKDKKPAAGEAPS | 5670 | 3180 | 6790 | 9710 | 7670 | 12900 | 148 | 629 | 118 | 115 | 64.1 | 109
38 | GKEKKAATGGTPSQS | 5470 | 257 | 303 | 2170 | 2580 | 2140 | 177 | 94.1 | 239 | 269 | 148 | 115
39 | NKPATGETPSQSGAS | 16600 | 32900 | 37900 | 229 | 204 | 36500 | 496 | 943 | 482 | 306 | 1740 | 968
40 | PPSGKDNKPAAGETP | 960 | 5000 | 23100 | 715 | 6860 | 12600 | 472 | 716 | 265 | 288 | 338 | 223
41 | GTEKKTAAGGTPSPP | 709 | 210 | 198 | 11700 | 811 | 2430 | 137 | 454 | 801 | 396 | 281 | 151
42 | NKPAAGETPSPSGAS | 309 | 758 | 17100 | 294 | 455 | 2210 | 365 | 745 | 657 | 290 | 201 | 1330
43 | SGKEKKAATGGAPSP | 3490 | 649 | 2460 | 2160 | 3950 | 4510 | 358 | 290 | 107 | 357 | 100 | 131
44 | EKKPATGETPSPSGA | 34500 | 26700 | 28200 | 318 | 223 | 21800 | 218 | 697 | 345 | 207 | 1740 | 1180
45 | SGTENKTATGETPSP | 17000 | 20100 | 20200 | 308 | 287 | 10500 | 499 | 347 | 164 | 248 | 249 | 777
46 | EKKPATGEAPSQPGA | 46600 | 47600 | 51200 | 433 | 434 | 42700 | 916 | 1100 | 399 | 284 | 480 | 934
47 | ISTPPSGTENKPATG | 52100 | 49900 | 54900 | 2210 | 7070 | 43100 | 9960 | 2240 | 845 | 1000 | 618 | 1150
48 | PSGTDKKAATGETPS | 3320 | 3030 | 13100 | 2960 | 917 | 11600 | 410 | 437 | 409 | 632 | 1400 | 240
49 | TPPSGKEKKPAAGEA | 17900 | 398 | 746 | 686 | 26400 | 2140 | 713 | 926 | 135 | 453 | 73.4 | 365
50 | DKKPAAGGTPSQPGA | 443 | 224 | 684 | 4850 | 394 | 1030 | 287 | 169 | 1660 | 252 | 298 | 286
